Data: the supplement of paper PMC8728848
The list shows a part of the results.

Columns and labels:
Assay in all cases: glycan array binding signal (z-score within array); higher = stronger binding
Conditions in all cases: glycan notation: IUPAC condensed, linker removed
[1] = target: GlcNAc(a1-6)Gal(b1-4)GlcNAc
Summary of the method: (§1)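 From the Consortium for Functional Glycomics database, 3228 arrays were curated, keeping only those whose protein sequence was available. Binding is given as a within-array Z-score averaged across arrays sharing a protein sequence and across linkers. Negative Z-scores can be read as non-binding.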

[2] = target: GlcNAc(b1-2)Gal(b1-3)GalNAc
Summary of the method: as §1

[3] = target: GlcNAc(b1-2)Man(a1-3)[GlcNAc(b1-2)Man(a1-6)]Man(b1-4)GlcNAc(b1-4)GlcNAc
Summary of the method: as §1

[4] = target: GlcNAc(b1-2)Man(a1-3)[GlcNAc(b1-2)Man(a1-6)]Man(b1-4)GlcNAc(b1-4)[Fuc(a1-6)]GlcNAc
Summary of the method: as §1

[5] = target: GlcNAc(b1-2)Man(a1-3)[GlcNAc(b1-4)][GlcNAc(b1-2)Man(a1-6)]Man(b1-4)GlcNAc(b1-4)GlcNAc
Summary of the method: as §1

[6] = target: GlcNAc(b1-2)Man(a1-3)[GlcNAc(b1-4)][GlcNAc(b1-2)Man(a1-6)]Man(b1-4)GlcNAc(b1-4)[Fuc(a1-6)]GlcNAc
Summary of the method: as §1

[7] = target: GlcNAc(b1-2)[GlcNAc(b1-4)]Man(a1-3)[GlcNAc(b1-2)Man(a1-6)]Man(b1-4)GlcNAc(b1-4)GlcNAc
Summary of the method: as §1

[8] = target: GlcNAc(b1-2)[GlcNAc(b1-4)]Man(a1-3)[GlcNAc(b1-4)][GlcNAc(b1-2)Man(a1-6)]Man(b1-4)GlcNAc(b1-4)GlcNAc
Summary of the method: as §1

[9] = target: GlcNAc(b1-2)[GlcNAc(b1-4)]Man(a1-3)[GlcNAc(b1-4)][GlcNAc(b1-2)[GlcNAc(b1-6)]Man(a1-6)]Man(b1-4)GlcNAc(b1-4)GlcNAc
Summary of the method: as §1

[10] = target: GlcNAc(b1-2)[GlcNAc(b1-4)]Man(a1-3)[GlcNAc(b1-4)][GlcNAc(b1-2)[GlcNAc(b1-6)]Man(a1-6)]Man(b1-4)GlcNAc(b1-4)[Fuc(a1-6)]GlcNAc
Summary of the method: as §1

[11] = target: GlcNAc(b1-2)[GlcNAc(b1-6)]Man(a1-6)[GlcNAc(b1-2)Man(a1-3)]Man(b1-4)GlcNAc(b1-4)GlcNAc
Summary of the method: as §1

[12] = target: GlcNAc(b1-2)[GlcNAc(b1-6)]Man(a1-6)[GlcNAc(b1-2)Man(a1-3)]Man(b1-4)GlcNAc(b1-4)[Fuc(a1-6)]GlcNAc
Summary of the method: as §1

[13] = target: GlcNAc(b1-2)[GlcNAc(b1-6)]Man(a1-6)[GlcNAc(b1-4)][GlcNAc(b1-2)Man(a1-3)]Man(b1-4)GlcNAc(b1-4)GlcNAc
Summary of the method: as §1

GlcNAc(b1-3)Fuc = target: GlcNAc(b1-3)Fuc
Summary of the method: as §1

GlcNAc(b1-3)Gal = target: GlcNAc(b1-3)Gal
Summary of the method: as §1

[14] = target: GlcNAc(b1-3)Gal(b1-3)GalNAc
Summary of the method: as §1

GlcNAc(b1-3)Gal(b1-4)Glc = target: GlcNAc(b1-3)Gal(b1-4)Glc
Summary of the method: as §1

[15] = target: GlcNAc(b1-3)Gal(b1-4)GlcNAc
Summary of the method: as §1

[16] = target: GlcNAc(b1-3)Gal(b1-4)GlcNAc(b1-2)Man(a1-3)[GlcNAc(b1-3)Gal(b1-4)GlcNAc(b1-2)Man(a1-6)]Man(b1-4)GlcNAc(b1-4)GlcNAc
Summary of the method: as §1

[17] = target: GlcNAc(b1-3)Gal(b1-4)GlcNAc(b1-2)Man(a1-3)[GlcNAc(b1-3)Gal(b1-4)GlcNAc(b1-2)Man(a1-6)]Man(b1-4)GlcNAc(b1-4)[Fuc(a1-6)]GlcNAc
Summary of the method: as §1

[18] = target: GlcNAc(b1-3)Gal(b1-4)GlcNAc(b1-2)[GlcNAc(b1-3)Gal(b1-4)GlcNAc(b1-6)]Man(a1-6)[GlcNAc(b1-3)Gal(b1-4)GlcNAc(b1-2)Man(a1-3)]Man(b1-4)GlcNAc(b1-4)GlcNAc
Summary of the method: as §1

[19] = target: GlcNAc(b1-3)Gal(b1-4)GlcNAc(b1-3)Gal(b1-4)GlcNAc
Summary of the method: as §1

[20] = target: GlcNAc(b1-3)Gal(b1-4)GlcNAc(b1-3)Gal(b1-4)GlcNAc(b1-2)Man(a1-3)[GlcNAc(b1-3)Gal(b1-4)GlcNAc(b1-3)Gal(b1-4)GlcNAc(b1-2)Man(a1-6)]Man(b1-4)GlcNAc(b1-4)GlcNAc
Summary of the method: as §1

[21] = target: GlcNAc(b1-3)Gal(b1-4)GlcNAc(b1-3)Gal(b1-4)GlcNAc(b1-2)Man(a1-3)[GlcNAc(b1-3)Gal(b1-4)GlcNAc(b1-3)Gal(b1-4)GlcNAc(b1-2)Man(a1-6)]Man(b1-4)GlcNAc(b1-4)[Fuc(a1-6)]GlcNAc
Summary of the method: as §1

[22] = target: GlcNAc(b1-3)Gal(b1-4)GlcNAc(b1-3)Gal(b1-4)GlcNAc(b1-2)[GlcNAc(b1-3)Gal(b1-4)GlcNAc(b1-3)Gal(b1-4)GlcNAc(b1-6)]Man(a1-6)[GlcNAc(b1-3)Gal(b1-4)GlcNAc(b1-3)Gal(b1-4)GlcNAc(b1-2)Man(a1-3)]Man(b1-4)GlcNAc(b1-4)[Fuc(a1-6)]GlcNAc
Summary of the method: as §1

[23] = target: GlcNAc(b1-3)Gal(b1-4)GlcNAc(b1-3)Gal(b1-4)GlcNAc(b1-3)Gal(b1-4)GlcNAc(b1-2)Man(a1-3)[GlcNAc(b1-3)Gal(b1-4)GlcNAc(b1-3)Gal(b1-4)GlcNAc(b1-3)Gal(b1-4)GlcNAc(b1-2)Man(a1-6)]Man(b1-4)GlcNAc(b1-4)GlcNAc
Summary of the method: as §1

[24] = target: GlcNAc(b1-3)Gal(b1-4)GlcNAc(b1-3)Gal(b1-4)GlcNAc(b1-3)Gal(b1-4)GlcNAc(b1-2)Man(a1-3)[GlcNAc(b1-3)Gal(b1-4)GlcNAc(b1-3)Gal(b1-4)GlcNAc(b1-3)Gal(b1-4)GlcNAc(b1-2)Man(a1-6)]Man(b1-4)GlcNAc(b1-4)[Fuc(a1-6)]GlcNAc
Summary of the method: as §1

[25] = target: GlcNAc(b1-3)Gal(b1-4)GlcNAc(b1-3)Gal(b1-4)GlcNAc(b1-3)Gal(b1-4)GlcNAc(b1-2)[GlcNAc(b1-3)Gal(b1-4)GlcNAc(b1-3)Gal(b1-4)GlcNAc(b1-3)Gal(b1-4)GlcNAc(b1-6)]Man(a1-6)[GlcNAc(b1-3)Gal(b1-4)GlcNAc(b1-3)Gal(b1-4)GlcNAc(b1-3)Gal(b1-4)GlcNAc(b1-2)Man(a1-3)]Man(b1-4)GlcNAc(b1-4)[Fuc(a1-6)]GlcNAc
Summary of the method: as §1

[26] = target: GlcNAc(b1-3)Gal(b1-4)GlcNAc(b1-3)Gal(b1-4)GlcNAc(b1-3)Gal(b1-4)GlcNAc(b1-3)Gal(b1-4)GlcNAc(b1-2)Man(a1-3)[GlcNAc(b1-3)Gal(b1-4)GlcNAc(b1-3)Gal(b1-4)GlcNAc(b1-3)Gal(b1-4)GlcNAc(b1-3)Gal(b1-4)GlcNAc(b1-2)Man(a1-6)]Man(b1-4)GlcNAc(b1-4)GlcNAc
Summary of the method: as §1

[27] = target: GlcNAc(b1-3)Gal(b1-4)GlcNAc(b1-3)Gal(b1-4)GlcNAc(b1-3)Gal(b1-4)GlcNAc(b1-3)Gal(b1-4)GlcNAc(b1-2)Man(a1-3)[GlcNAc(b1-3)Gal(b1-4)GlcNAc(b1-3)Gal(b1-4)GlcNAc(b1-3)Gal(b1-4)GlcNAc(b1-3)Gal(b1-4)GlcNAc(b1-2)Man(a1-6)]Man(b1-4)GlcNAc(b1-4)[Fuc(a1-6)]GlcNAc
Summary of the method: as §1

[28] = target: GlcNAc(b1-3)Gal(b1-4)GlcNAc(b1-3)Gal(b1-4)GlcNAc(b1-3)Gal(b1-4)GlcNAc(b1-3)Gal(b1-4)GlcNAc(b1-2)[GlcNAc(b1-3)Gal(b1-4)GlcNAc(b1-3)Gal(b1-4)GlcNAc(b1-3)Gal(b1-4)GlcNAc(b1-3)Gal(b1-4)GlcNAc(b1-6)]Man(a1-6)[GlcNAc(b1-3)Gal(b1-4)GlcNAc(b1-3)Gal(b1-4)GlcNAc(b1-3)Gal(b1-4)GlcNAc(b1-3)Gal(b1-4)GlcNAc(b1-2)Man(a1-3)]Man(b1-4)GlcNAc(b1-4)[Fuc(a1-6)]GlcNAc
Summary of the method: as §1

[29] = target: GlcNAc(b1-3)Gal(b1-4)GlcNAc(b1-3)Gal(b1-4)GlcNAc(b1-3)GalNAc
Summary of the method: as §1

[30] = target: GlcNAc(b1-3)Gal(b1-4)GlcNAc(b1-3)GalNAc
Summary of the method: as §1

[31] = target: GlcNAc(b1-3)Gal(b1-4)GlcNAc(b1-3)[GlcNAc(b1-3)Gal(b1-4)GlcNAc(b1-3)]GalNAc
Summary of the method: as §1

[32] = target: GlcNAc(b1-3)Gal(b1-4)GlcNAc(b1-6)[Gal(b1-3)]GalNAc
Summary of the method: as §1

[33] = target: GlcNAc(b1-3)Gal(b1-4)GlcNAc(b1-6)[GlcNAc(b1-3)Gal(b1-3)]GalNAc
Summary of the method: as §1

[34] = target: GlcNAc(b1-3)Gal(b1-4)GlcNAc(b1-6)[GlcNAc(b1-3)]Gal(b1-4)GlcNAc
Summary of the method: as §1

GlcNAc(b1-3)GalNAc = target: GlcNAc(b1-3)GalNAc
Summary of the method: as §1

GlcNAc(b1-3)Man = target: GlcNAc(b1-3)Man
Summary of the method: as §1

[35] = target: GlcNAc(b1-3)[GlcNAc(b1-4)][GlcNAc(b1-6)]GlcNAc
Summary of the method: as §1

[36] = target: GlcNAc(b1-3)[GlcNAc(b1-6)]Gal(b1-4)GlcNAc
Summary of the method: as §1

[37] = target: GlcNAc(b1-3)[GlcNAc(b1-6)]GalNAc
Summary of the method: as §1

[38] = target: GlcNAc(b1-4)Gal(b1-4)GlcNAc
Summary of the method: as §1

GlcNAc(b1-4)GlcNAc = target: GlcNAc(b1-4)GlcNAc
Summary of the method: as §1

[39] = target: GlcNAc(b1-4)GlcNAc(b1-4)GlcNAc
Summary of the method: as §1

B1: PVL (Psathyrella velutina), Q309D1_9AGAR (protein)
chain: MSVVVISQALPVPTRIPGVADLVGFGNGGVYIIRNSLLIQVVKVINNFGYDAGGWRVEKHVRLLADTTGDNQPDVVGFGENGVWISTNNGNNTFVDPPKMVLANFAYAAGGWRVEKHIRFMADLRKTGRADIVGFGDGGIYISRNNGGGQFAPAQLALNNFGYAQGWRLDRHLRFLADVTGDGLLDVVGFGENQVYIARNSGNGTFQPAQAVVNNFCIGAGGWTISAHPRVVADLTGDRKADILGFGVAGVYTSLNNGNGTFGAVNLVLKDFGVNSGWRVEKHVRCVSSLTNKKVGDIIGFGDAGVYVALNNGNGTFGPVKRVIDNFGYNQGWRVDKHPRFVVDLTGDGCADIVGFGENSVWACMNKGDGTFGPIMKLIDDMTVSKGWTLQKTVRYAANLYL
glycan array binding signal (z-score) [1]: 1.91
glycan array binding signal (z-score) [2]: 0.08
glycan array binding signal (z-score) [3]: 1.69
glycan array binding signal (z-score) [4]: 0.519
glycan array binding signal (z-score) [5]: 0.188
glycan array binding signal (z-score) [6]: 0.461
glycan array binding signal (z-score) [7]: 1.24
glycan array binding signal (z-score) [8]: 0.537
glycan array binding signal (z-score) [9]: 0.078
glycan array binding signal (z-score) [10]: 0
glycan array binding signal (z-score) [11]: 1.06
glycan array binding signal (z-score) [12]: 1.56
glycan array binding signal (z-score) [13]: 0.06
glycan array binding signal (z-score) (GlcNAc(b1-3)Fuc): 0.23
glycan array binding signal (z-score) (GlcNAc(b1-3)Gal): 2.44
glycan array binding signal (z-score) [14]: 1.48
glycan array binding signal (z-score) (GlcNAc(b1-3)Gal(b1-4)Glc): 4.07
glycan array binding signal (z-score) [15]: 3.63
glycan array binding signal (z-score) [16]: 3.5
glycan array binding signal (z-score) [17]: 3.27
glycan array binding signal (z-score) [18]: 3.69
glycan array binding signal (z-score) [19]: 4.46
glycan array binding signal (z-score) [20]: 3.34
glycan array binding signal (z-score) [21]: 4.03
glycan array binding signal (z-score) [22]: 4.69
glycan array binding signal (z-score) [23]: 4.58
glycan array binding signal (z-score) [24]: 4.34
glycan array binding signal (z-score) [25]: 5.13
glycan array binding signal (z-score) [26]: 4.45
glycan array binding signal (z-score) [27]: 4.27
glycan array binding signal (z-score) [28]: 5.12
glycan array binding signal (z-score) [29]: 2.88
glycan array binding signal (z-score) [30]: 1.51
glycan array binding signal (z-score) [31]: 2.73
glycan array binding signal (z-score) [32]: 2.05
glycan array binding signal (z-score) [33]: 2.71
glycan array binding signal (z-score) [34]: 3.83
glycan array binding signal (z-score) (GlcNAc(b1-3)GalNAc): 1.05
glycan array binding signal (z-score) (GlcNAc(b1-3)Man): 0.277
glycan array binding signal (z-score) [35]: 0.097
glycan array binding signal (z-score) [36]: 2.91
glycan array binding signal (z-score) [37]: 1.1
glycan array binding signal (z-score) [38]: -0.133
glycan array binding signal (z-score) (GlcNAc(b1-4)GlcNAc): 0.43
glycan array binding signal (z-score) [39]: 0.777
